Experimental data reported in PubChem BioAssay AID1159614 (National Center for Advancing Translational Sciences (NCATS), 2016).
Among all 45,000 compounds or so, about 65 (0.1%) were called active. Calls come from the whole dose curve; as a rule, active = well fitted activation curve with a large enough effect; inconclusive = small, poorly fitted or top-dose-only effect; inactive = no such curve, though single readings can be large or run the other way. Some of the results follow.

These molecules were tested against Galactocerebrosidase (Homo sapiens) (UniProt P54803) (assay: A Novel Cell-Based Assay to Identify Small Molecules for B -Galactocerebrosidase). Settings: 145M-Twi-hGALC-G270D cells (Twitcher mouse brain line with human GALC G270D), HMU-beta-Gal fluorescence, 48 h; series mostly up to 57.5 µM; activation: at the top concentration.
Procedure, shortened: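 Fluorogenic HMU-b-Gal hydrolysis (0.1 mM final, pH 5.2 citrate-phosphate with 1 mg/mL sodium taurocholate; carbonate stop buffer) measures mutant GALC activity after compound treatment of live 145M-Twi Twitcher brain cells stably carrying human GALC-G270D, with wild-type GALC line alongside; activation sought.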
Note: 0% is about no effect; nearly all actives have a fitted effect of over 65% in size.

UniProt P54803, sequence (P54803 whole entry, looked up): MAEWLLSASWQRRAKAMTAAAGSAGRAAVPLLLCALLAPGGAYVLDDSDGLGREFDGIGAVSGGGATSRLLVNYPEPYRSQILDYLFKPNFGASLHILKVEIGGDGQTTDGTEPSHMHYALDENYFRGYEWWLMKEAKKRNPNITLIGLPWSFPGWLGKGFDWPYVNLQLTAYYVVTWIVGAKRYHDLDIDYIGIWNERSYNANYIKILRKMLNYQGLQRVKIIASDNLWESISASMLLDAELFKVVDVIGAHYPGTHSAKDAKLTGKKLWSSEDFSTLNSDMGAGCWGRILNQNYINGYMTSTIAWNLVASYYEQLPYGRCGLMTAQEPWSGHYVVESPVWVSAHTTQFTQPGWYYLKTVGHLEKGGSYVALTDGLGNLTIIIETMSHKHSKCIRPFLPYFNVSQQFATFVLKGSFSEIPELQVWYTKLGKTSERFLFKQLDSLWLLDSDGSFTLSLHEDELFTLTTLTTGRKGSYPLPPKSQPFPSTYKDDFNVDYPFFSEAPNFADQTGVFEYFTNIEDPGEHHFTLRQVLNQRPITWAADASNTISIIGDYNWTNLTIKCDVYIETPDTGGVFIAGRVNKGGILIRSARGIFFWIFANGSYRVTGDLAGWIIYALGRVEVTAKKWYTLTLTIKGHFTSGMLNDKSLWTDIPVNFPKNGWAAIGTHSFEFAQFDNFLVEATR

Structure (SMILES) | activation
COc1cccc(C(=O)Nc2ccc3oc(-c4cccc5c(Br)cccc45)nc3c2)c1 | inactive: -4.5%
COc1ccccc1N1CCN(C(=O)c2cnn(-c3ccc(F)cc3F)c2C2CCNCC2)CC1 | inactive: -26.1%
CN(C)S(=O)(=O)c1ccc(C(=O)NCCSc2c(-c3ccc(Cl)cc3)[nH]c3ccccc23)cc1 | inactive: -8.86%
Cc1cccc(OCC(=O)Nc2cccc3cccnc23)c1C | inactive: -13.7%
CCOC(=O)c1c(NC(=O)c2ccccc2OCC)sc2c1CCC(CC)C2 (stereo unspecified) | inactive: -14.6%
COc1ccc(N2CCN(C(=O)CCc3c(C)nc4cc(-c5ccc(OC)cc5OC)nn4c3C)CC2)cc1 | inactive: -1.62%
Cc1ccc2cccc(NC(=O)C(C)(C)Oc3ccc(Br)cc3)c2n1 | inactive: -14.9%
CCOc1ccc(NC(=O)CSc2nc(-c3ccc(F)cc3)cc(C(F)(F)F)c2C#N)cc1 | inactive: -23.2%
CCOc1ccc(NC(=O)CCS(=O)(=O)c2ccc3c(c2)n(C)c(=O)c(=O)n3C)cc1 | inactive: -11.6%
CCN(Cc1ccccc1)C(=O)CN1C(=O)COc2ccc(S(=O)(=O)N3CCCCCC3)cc21 | inactive: -4.85%
Cc1ccc(NC(=O)CCS(=O)(=O)c2cccc3nsnc23)c(C)c1 | inactive: 3.26%
CCn1cc2nc(SCc3ccccc3F)n(Cc3ccc(C)cc3)c(=O)c2n1 | inactive: -41%
CCOC(=O)c1ccccc1NC(=O)Cn1c2ncccc2c(=O)n1-c1ccccc1 | inactive: -18%
CCOCCCn1c(SCC(=O)Nc2ccc(OC)cc2OC)nc2ccccc2c1=O | inactive: -11.6%
CCOC(=O)CSc1nc2ccc(NC(=O)c3ccccc3)cc2s1 | inactive: 5.34%
COc1cccc(C(=O)c2cn(CC(=O)Nc3cccc(C)c3C)c3nc(C)ccc3c2=O)c1 | inactive: -8.58%
Cc1ccc(C)c(N2CCN(Cc3nnc(-c4ccccc4)o3)CC2)c1 | inactive: -28.7%
Cc1cccc(C)c1NC(=O)Cn1nc(C)c2sc3ccccc3c2c1=O | inactive: -17%
COc1ccc(-c2cn3c(n2)sc2cc(C(=O)Nc4cc(Cl)ccc4C)ccc23)cc1 | inactive: -15.8%
CCc1ccc(C(=O)Nc2ccc3nn(-c4ccc(C)c(Cl)c4)nc3c2)cc1 | inactive: 3.74%
Cc1ccc(CN2CCc3nc(SCC(=O)Nc4cccc(C)c4C)[nH]c(=O)c3C2)cc1 | inactive: -1.98%

Structure (SMILES) | activation
COc1ccc2oc(-c3ccc(C)c(NC(=O)Cc4ccc(Cl)cc4)c3)nc2c1 | inactive: -4.98%
CCSc1ncc(Cl)c(C(=O)Nc2c(C(=O)c3ccccc3)oc3ccccc23)n1 | inactive: -32.4%
Cc1ccccc1CN1CCN(CC(=O)NCc2ccccc2Cl)C1=O | inactive: -16%
O=C(NCCc1csc(-c2ccc(F)cc2)n1)c1ccc(Br)o1 | inactive: -19.6%
Cc1nc2cc(-c3ccccc3)nn2c(C)c1CCC(=O)N1CCN(c2ccccc2)CC1 | inactive: -13%
Cc1cccc(NC(=O)c2cc(S(=O)(=O)N3CCC4(CC3)OCCO4)ccc2F)c1 | inactive: -16.5%
COc1ccc(N2CC(NC(=O)c3ccc(S(=O)(=O)N4CCCCC4)cc3)CC2=O)cc1OC (stereo unspecified) | inactive: 6.54%
O=C(CCNS(=O)(=O)c1ccc2c(c1)CCN2C(=O)C1CC1)Nc1ccc(F)cc1F | inactive: -40.1%
CCOC(=O)c1ccc(NC(=O)Cn2cc(C(=O)c3ccc(Cl)cc3)c(=O)c3ccc(C)nc32)cc1 | inactive: -10.9%
COc1cc(OC)cc(-c2nc3nc(C)c(CCC(=O)Nc4cc(F)ccc4F)c(C)n3n2)c1 | inactive: -4.78%
Fc1ccc2c(c1)NC(c1ccncc1)=NC(c1cccs1)=N2 | inactive: -18.4%
Cc1c(NC(=O)c2cc(=O)c3cc(Cl)ccc3o2)c(=O)n(-c2ccccc2)n1C | inactive: -9.65%
Cc1cccc(-c2nc(Cn3c(SCc4cccc(C(F)(F)F)c4)nc4ccncc43)c(C)o2)c1 | inactive: -8.24%
Cc1nc2c(C(=O)NC(C)c3ccccc3)cnn2c(C)c1Cc1ccccc1 (stereo unspecified) | inactive: -32.1%
COC(=O)c1cc2occc2n1Cc1nc(-c2ccc(C)cc2)oc1C | inactive: -12%
CCC(=O)Nc1nnc(S(=O)(=O)N2CCc3ccccc32)s1 | inactive: 5.12%
Cc1cccc(-n2nnnc2S(C)(=O)=O)c1 | inactive: -12.5%
CCc1ccc(-c2[nH]c3c(c2-c2sc(C)c(C(=O)OC)c2O)c(=O)n(C)c(=O)n3C)cc1 | inactive: -11.6%
O=C(Cc1ccccc1)Nc1c(C(=O)Nc2ccccc2F)oc2ccccc12 | inactive: -10.3%
CCn1cc(C(=O)NCc2ccccc2)c(=O)c2cc(S(=O)(=O)N3CCCCCC3)ccc21 | inactive: -8.83%
COc1ccc(NC(=O)c2ccc(COc3ccccc3OC)o2)cc1OC | inactive: -11.4%

Structure (SMILES) | activation
Cc1ccc(OCc2nc3ccccc3n2Cc2ccccc2Cl)cc1 | inactive: -19.6%
COc1cccc(CNC(=O)CCC(=O)N2Cc3cccc(OC)c3Oc3ncccc32)c1OC | inactive: -12.9%
CCCNC(=O)CCc1c(C)nc2nc(-c3cc(OC)cc(OC)c3)nn2c1C | inactive: -0.707%
Cc1c(NC(=O)c2ccccc2F)cccc1-c1nc2cccnc2s1 | inactive: -8.98%
CC(=O)N1CCCc2cc(S(=O)(=O)N(C)CC(=O)Nc3ccc(Cl)cc3C)ccc21 | inactive: -14.6%
N=C(N)c1ccc2cc(OC(=O)c3ccc(N=C(N)N)cc3)ccc2c1 | inactive: -5.33%
O=C(Cn1ncc2c(=O)oc3ccccc3c21)NCc1ccc(Cl)cc1 | inactive: -13.2%
COc1cccc2sc(N(Cc3cccnc3)C(=O)C3COc4ccccc4O3)nc12 (stereo unspecified) | inactive: 0.762%
COc1ccc(N(C)C(=O)CCS(=O)(=O)c2cccc3nsnc23)cc1 | inactive: -0.968%
CCOc1ccc(CCNC(=O)CN(c2ccc(C)cc2)S(=O)(=O)N(C)C)cc1OCC | inactive: -3.15%
O=c1c(S(=O)(=O)c2ccccc2)cn(Cc2ccc(F)cc2)c2cc(N3CCCCC3)c(F)cc12 | inactive: -7.88%
COc1ccc2c(c1)CCc1c(C(=O)Nc3c(C)nn(Cc4ccc(C)cc4)c3C)noc1-2 | inactive: -2.93%
Cc1ccc(C)c(NC(=O)c2cc(S(=O)(=O)NCCC3=CCCCC3)ccc2F)c1 | inactive: -26.4%
COc1ccc(CNC(=O)C(C(C)C)N2Cc3ccccc3C2=O)cc1 (stereo unspecified) | inactive: -13.2%
CCCN(CCC)C(=O)C1CCN(c2ncnc3c2nc2n3CCCCC2)CC1 | inactive: -5.55%
Cc1ccc(-n2c(=O)c3c(c4cc(C)ccc4n3C)n(CC(=O)Nc3cc(C)cc(C)c3)c2=O)cc1 | inactive: -12.8%
C[C@H]1C[C@@H]2[C@H]([C@@H](O)C[C@@]3(C)[C@H]2CC[C@]3(O)C(=O)CO)[C@@]2(C)C=CC(=O)C=C12 | inactive: -10%
COC(=O)c1nnn(CC(=O)Nc2ccc(Br)c(C)c2)c1N | inactive: -15.8%
Cc1ccc(-c2onc(C)c2C)cc1S(=O)(=O)NC1CCCCC1 | inactive: -11.1%
